The text below walks through data of ChEMBL document CHEMBL1201862, “PubChem BioAssay data set” (2004).

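How tested: cells in 96-well plates exposed to compound for 48 hours at five concentrations. The concentration for 50% growth inhibition is given as GI50.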 Activity calls are given as the source filed them. Rule as the data show it: active = GI50 up to about 1.1 µM and inactive = higher.

The assay concerns NCI-H322M. As to the kind of experiment: NCI-60 cell line screen, 48 h.
For the molecule `Fc1c(F)c(F)c(CSc2nc3ccccc3[nH]2)c(F)c1F`, the GI50 is inactive: > 100 µM.

As to `Nc1ncnc2c1ncn2C1CCC(CO)O1` (configuration not stated), the GI50 is inactive: > 100 µM.

Regarding `Cn1c(=S)c2nc(SCCN3CCCC3)[nH]c2n(C)c1=O`, the GI50 was inactive: > 100 µM.

Regarding `CN(C)CCNc1ccc2ncn3c4ccccc4c(=O)c1c23`, the GI50 was inactive: 1.98 µM.

Regarding `c1c[nH]c(CN2CCN(Cc3ncc[nH]3)CC2)n1`, the GI50 was inactive: > 100 µM.

In the case of `CCN(CC)CC(C)(C)C(=O)/C=C/c1ccc(/C=C/C(=O)C(C)(C)CN(CC)CC)cc1`, the GI50 is inactive: 1.5 µM.

Turning to `COc1cc2nc(-c3ccc4ccccc4c3)nc(O)c2cc1OC`, the GI50 was inactive: > 100 µM.

As for `COC1OC(COC(C)=O)C(OC(C)=O)C(OC(C)=O)C1NC(=O)N(CCCl)N=O` (configuration not stated), the GI50 was inactive: > 100 µM.

Turning to `COc1cc2c[n+](C)c3c4cc(OC)c(OC)cc4c(OC)cc3c2cc1OC`, the GI50 was inactive: 11.1 µM.

`Nc1ccc(Oc2ccc(C3(c4ccc(Oc5ccc(N)c(O)c5)cc4)C4CC5C6CC7CC5C3C(C7)C6C4)cc2)cc1O`: the GI50 is inactive: 1.34 µM.

As to `N=c1c2c(-c3ccccc3)c[nH]c2ncn1N`, the GI50 is inactive: > 100 µM.

On to `COC(=O)[C@@]12CC(C(C)C)[C@H]3CC(C(=O)C=C1OC)[C@H]32` (some centres not stated), for which the GI50 was inactive: > 100 µM.

Regarding `CSc1nc(N)c2c(-c3ccccc3)c3c(nc2n1)CCCC3`, the GI50 is inactive: > 100 µM.

`C(=C1/CCCCC([n+]2ccccc2)=N1)/c1ccccc1`: the GI50 is inactive: > 100 µM.

Regarding `O=C(NO)c1coc2ccccc2c1=O`, the GI50 was inactive: 84.3 µM.

For `CN(CCCNC(=O)c1cc(-c2ccccc2)nc2ccccc12)CCCNC(=O)c1cc(-c2ccccc2)nc2ccccc12`, the GI50 was inactive: 6.85 µM.

For the molecule `CN1CCN(Cn2nc(COc3ccccc3Cl)n(/N=C/c3ccc(-c4ccc(Cl)cc4Cl)o3)c2=S)CC1`, the GI50 was inactive: 27.9 µM.

With `Clc1ccccc1/C=C/c1ccnc2ccccc12`, the GI50 was inactive: 16.2 µM.

On to `Nc1nc(S)nc(C(=O)Nc2ccc(Cl)c(Cl)c2)c1-c1ccc(Cl)cc1`, for which the GI50 is inactive: > 100 µM.

`O=C(O)CN1CCNCCN(CC(=O)O)CC1`: the GI50 is inactive: > 68.5 µM.

As for `Cc1ccc(S(=O)(=O)N2CCNCCN(S(=O)(=O)c3ccc(C)cc3)CCN(S(=O)(=O)c3ccc(C)cc3)CC2)cc1`, the GI50 is inactive: > 100 µM.

For `O=C(CC(=O)n1nc(-c2ccccc2)c(/N=N/c2ccc([N+](=O)[O-])cc2)c1-c1ccccc1)Nc1ccc(Cl)cc1`, the GI50 is inactive: 29.7 µM.

Take `CCOC(=O)C(OCC1CC=CCC1)Sc1ccccc1` (configuration not stated): the GI50 was inactive: > 100 µM.

Regarding `Cc1cccc(C)c1NC(=O)C(C#N)C1=C(Cl)C(=O)c2ccccc2C1=O` (configuration not stated), the GI50 was inactive: 16.1 µM.

Consider `CCn1cnnc1-c1nsc2ccccc12`, for which the GI50 was inactive: > 100 µM.

For the molecule `O=C(NCCCCCCCCNC(=O)Nc1cccc2ccccc12)Nc1cccc2ccccc12`, the GI50 was inactive: > 100 µM.

On to `CC(C)=CC[C@]12CCN(C)[C@H]1N(S(=O)(=O)c1ccccc1)c1ccccc12`, for which the GI50 was inactive: > 27.2 µM.

For `O=C(CC1=Nc2nnc(CCCCCCCc3nnc4n3C(=O)C(CC(=O)c3ccc5ccccc5c3)=N4)n2C1=O)c1ccc2ccccc2c1`, the GI50 was inactive: > 100 µM.

For `O=C(O)CCC1(CCC(=O)O)CCCCCCCCC(CCC(=O)O)(CCC(=O)O)C(=O)C1=O`, the GI50 is inactive: > 100 µM.

Consider `CC1=C(C#N)C2C(=C(C)N1)C(N)=Nc1ccccc12` (configuration not stated), for which the GI50 is inactive: 88.5 µM.

Regarding `Cc1ccc(/N=N/N(C)C(=O)C(C)N)cc1` (configuration not stated), the GI50 is inactive: > 100 µM.

Take `COC(=O)c1cc(NC(=O)c2cc(NC(=O)c3cc([N+](=O)[O-])cn3C)cn2C)cn1C`: the GI50 was inactive: 54.7 µM.

Consider `CCCCOc1ccc2c(c1)CC[C@@H]1[C@@H]2CC[C@]2(C)C(=O)N(CCCC)C(=O)C[C@@H]12`, for which the GI50 is inactive: > 100 µM.

Take `O=C1CSC(c2ccc([N+](=O)[O-])cc2)N1c1nc(-c2ccc3c(c2)CCCC3)cs1` (configuration not stated): the GI50 is inactive: > 100 µM.

For `COC(=O)c1ccccc1C1CN=NC12Cc1ccc(C)cc1C2=O` (configuration not stated), the GI50 was inactive: > 100 µM.

`CCCN(CCC)C(=O)c1nc(N)nc(-c2ccc(OC)cc2)c1-c1ccc(OC)cc1`: the GI50 was inactive: > 100 µM.

For the molecule `COc1c(C)c2c(c(C)c1Cl)Oc1c(C=O)c(O)c(Cl)c(C)c1C(=O)O2`, the GI50 was inactive: 33 µM.

Consider `CC(C)C(/C=C/c1ccc(Cl)c(Cl)c1)=N\NC(=O)N/N=C(/C=C/c1ccc(Cl)c(Cl)c1)C(C)C`, for which the GI50 was inactive: > 100 µM.

Take `NNC(=O)C(=O)N/N=C1/CCCC1C(=O)CCC(=O)Nc1ccc(Cl)cc1` (configuration not stated): the GI50 was inactive: > 100 µM.

Regarding `CC1CSC(=S)N1C(=O)N1C(=S)SCC1C` (configuration not stated), the GI50 was inactive: 42.4 µM.

As for `N#Cc1[nH]c(=O)n(-c2ccc([N+](=O)[O-])cc2)c1N`, the GI50 was inactive: > 10 µM.

Consider `CC1(C)N=c2c(ncn2CCO)=C(C(N)=O)N1`, for which the GI50 is inactive: > 100 µM.

Consider `Cc1nn2c(=O)c([N+](=O)[O-])c(/C=C/c3ccc(F)cc3)nc2s1`, for which the GI50 was inactive: 9.08 µM.

With `CN(C)c1n/c(=N/Cc2ccco2)ss1`, the GI50 was inactive: 47.1 µM.

For the molecule `CC(=O)NNc1nc(C)c(C(/C=C/c2ccc([N+](=O)[O-])cc2)=N/NC(N)=S)s1`, the GI50 was inactive: > 100 µM.

`CCOC(=O)C12CCC(c3c(C)cccc3C)(O1)C(C(=O)OC)=C2C(=O)OC` (configuration not stated): the GI50 was inactive: 4.12 µM.

Turning to `Clc1cccc(Cl)c1C1SCc2nc3cc4ccccc4cc3n21` (configuration not stated), the GI50 is inactive: > 100 µM.

`CC1(C)OC2CC(=O)OCC23C1CC(=O)C1(C)C3CCC2(C)C(c3ccoc3)OC(=O)C3OC321` (configuration not stated): the GI50 is inactive: > 125 µM.

`NC(=O)c1c2c(cc3c(=O)c4ccccc4[nH]c13)CCCC2`: the GI50 was inactive: > 100 µM.

`CCC1(OC(C)=O)C(=O)OCc2c1cc1n(c2=O)Cc2cc3ccccc3nc2-1` (configuration not stated): the GI50 was inactive: 5.15 µM.

For the molecule `C#CCNC(=O)NC(CCCNC(=O)OCc1ccccc1)C(=O)OCc1ccccc1` (configuration not stated), the GI50 is inactive: > 100 µM.

Consider `Nc1nc2sc3ccccc3c(=O)n2n1`, for which the GI50 is inactive: > 100 µM.

Turning to `CS/C=C\C(=O)O[C@H]1C[C@@H]2[C@@H](O)c3occ(C)c3C[C@]2(C)[C@@H](C)C1`, the GI50 is inactive: 40.2 µM.

Regarding `COc1ccc(CSCc2cc(OC)c(OC)c(OC)c2)cc1`, the GI50 was inactive: > 100 µM.

With `N=C(N)N/N=C/c1c(-c2ccc([N+](=O)[O-])cc2)nc2n1CCS2`, the GI50 is inactive: 13.1 µM.

With `CN(C)C(=Nc1nc(N(C)C)s[s+]1)N(C)C`, the GI50 is inactive: > 100 µM.

As to `COc1ccc2c(c1)nc1n2C(c2c(F)cccc2F)SC1` (configuration not stated), the GI50 was inactive: > 100 µM.

On to `O=C(O)CCC(N/N=N/c1ccc(-c2nc3ccccc3[nH]2)cc1)C(=O)O` (configuration not stated), for which the GI50 is inactive: > 100 µM.

As for `CC(CC(=O)N1C2CC3CCC2(CS1(=O)=O)C3(C)C)[Si](C)(C)C` (configuration not stated), the GI50 is inactive: > 100 µM.

Consider `CCCCCC/C(CC(=O)CCC(=O)NCCc1ccccc1)=N\Nc1ccc([N+](=O)[O-])cc1[N+](=O)[O-]`, for which the GI50 is inactive: > 100 µM.

Turning to `COC1=CC2(C=CC1=O)CCNC1=C2C(=O)c2nc[nH]c2C1=O` (configuration not stated), the GI50 was inactive: > 100 µM.

`N#Cc1c(O)nc2[nH]nc(/N=N\c3c(O)ccc4ccccc34)c2c1-c1ccc(Cl)cc1`: the GI50 is active: 0.321 µM.

For `COC(=O)C(CC(C)=O)CS(=O)(=O)CC(=O)C(=O)Nc1cccc([N+](=O)[O-])c1` (configuration not stated), the GI50 was inactive: > 100 µM.

`COc1cc2cc(C(=O)N3CC(COS(C)(=O)=O)c4ccc(NC(=O)OCc5ccccc5)cc43)[nH]c2c(OC)c1OC` (configuration not stated): the GI50 was inactive: > 100 µM.

In the case of `COc1cc(OC)nc(-n2c(N)c(C#N)c3ccc([N+](=O)[O-])cc3c2=O)n1`, the GI50 is inactive: > 100 µM.

Take `Cc1nc2ccc(Cl)cc2c(-n2ccnc2)c1CCn1ccnc1`: the GI50 was inactive: 26.2 µM.

For `COc1ccc(O)c(/C=N\Nc2ccccc2)c1`, the GI50 is inactive: 37 µM.

With `O=C(N/N=C\c1cccc2ccccc12)Nc1cccc2ccccc12`, the GI50 is inactive: 46 µM.

In the case of `O=C(/C=C1\C[C@H]2C=Nc3ccccc3C(=O)N2C1)NCCCNC(=O)/C=C1\C[C@H]2C=Nc3ccccc3C(=O)N2C1`, the GI50 was inactive: 16.8 µM.

For `Cc1ccc(S(=O)(=O)NC(=O)Nc2cccc(S(N)(=O)=O)c2)cc1`, the GI50 is inactive: > 100 µM.

In the case of `C/C(=C\CSCC(N)C(=O)O)CC/C=C(\C)CNc1ccccc1` (configuration not stated), the GI50 was inactive: 56.6 µM.

As for `N#CC(c1ccccc1)c1nc2ccc(N)cc2[n+]([O-])c1C(C#N)c1ccccc1` (configuration not stated), the GI50 was inactive: > 100 µM.

Regarding `CC(C)C1=CC2=C(C(=O)C1=O)C13CCCC(C)(C)C1CC2OC3=O` (configuration not stated), the GI50 is inactive: 39.6 µM.

As to `C=Cc1ccc(C)[n+](C[Si](C)(C)O[Si](C)(C)C)c1`, the GI50 is inactive: > 100 µM.

In the case of `CN(C)c1ccc(/C=C/c2ccc(/C=C/c3ccc(N(C)C)cc3)cc2)cc1`, the GI50 was inactive: > 100 µM.

Take `O=C(Nc1ccccn1)c1cc2c(cc1Cl)Sc1nccn1S2(=O)=O`: the GI50 is inactive: 17 µM.

For the molecule `COc1ccc2c(c1OC)C(C(Cl)(Cl)Cl)N1CCc3cc4c(cc3C1=C2)OCO4` (configuration not stated), the GI50 was inactive: 40.2 µM.

In the case of `O=C(Nc1ccc([N+](=O)[O-])cc1Cl)c1cccc([N+](=O)[O-])c1O`, the GI50 is inactive: 2.35 µM.

On to `COc1ccc(/C=C\c2cc(OC)c3c(c2)OCO3)c(O)c1O`, for which the GI50 was inactive: 9.86 µM.

As to `Cc1c2cc[n+](C)cc2c(C)c2c1[nH]c1ccc(O)c(OCC(F)(F)F)c12`, the GI50 was inactive: 1.99 µM.

Regarding `Cc1c2cc[n+](C)cc2c(C)c2c1oc1ccccc12`, the GI50 was inactive: 4.21 µM.

Regarding `COc1cc2oc(-c3ccc(O)cc3)cc(=O)c2c(OC)c1O`, the GI50 is inactive: 84.7 µM.
